Measurements: PubChem BioAssay AID624417 (National Center for Advancing Translational Sciences (NCATS), 2012)
Out of some 410,000 compounds screened, about 6,400 (1.6%) were called active. The inconclusive results got no clear call from the source; some entries with a clear call stand among them for comparison. The call rests on the fitted dose curve; in most records, active means well fitted inhibition curve with a large enough effect; inconclusive means small, poorly fitted or top-dose-only effect; inactive means no such curve, though single readings can be large or run the other way. No potency is given beside an inconclusive call; the fits are too rough.

Molecular target: Glucagon-like peptide 1 receptor (Homo sapiens) (UniProt P43220)
Test: qHTS of GLP-1 Receptor Inverse Agonists (Inhibition Mode); further: nearly all actives have a fitted effect of over 55% in size
Conditions: HEK293 GLP-1R CRE-luciferase, luminescence, 24 h, GLP-1R form is constitutively active; series mostly up to 38.3 µM
How it was run: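 Assay principle: reduced luminescence from a cAMP-responsive reporter in HEK293 cells co-expressing a constitutively active GLP-1R. Conditions: 24 hr compound incubation, 37 deg C, 5% CO2.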
Potency means the concentration at half of the fitted maximal effect; tags describe the fitted curve by direction and shape.

UniProt P43220, sequence (P43220 whole entry, looked up): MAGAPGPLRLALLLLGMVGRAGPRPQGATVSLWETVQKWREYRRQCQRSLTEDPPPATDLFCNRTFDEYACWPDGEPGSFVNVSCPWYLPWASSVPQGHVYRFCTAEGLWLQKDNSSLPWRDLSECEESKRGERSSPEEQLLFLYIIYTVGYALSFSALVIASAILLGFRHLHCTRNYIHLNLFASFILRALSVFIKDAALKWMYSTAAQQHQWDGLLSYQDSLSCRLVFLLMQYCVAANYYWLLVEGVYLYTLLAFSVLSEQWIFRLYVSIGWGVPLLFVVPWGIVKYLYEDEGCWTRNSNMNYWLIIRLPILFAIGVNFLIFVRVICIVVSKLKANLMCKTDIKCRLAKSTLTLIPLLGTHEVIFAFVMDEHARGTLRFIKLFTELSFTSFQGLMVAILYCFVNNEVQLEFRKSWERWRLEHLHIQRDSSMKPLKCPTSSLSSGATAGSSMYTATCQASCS

SMILES | Potency
CCc1ccc(NCc2cc3cc4c(cc3n(CC(=O)Nc3ccc(OC)cc3)c2=O)OCO4)cc1 | inactive
Cc1ccc(S(=O)(=O)N2[C@@H](c3ccccc3)C(C(=O)O)=CC[C@H]2c2ccc(Cl)cc2)cc1 | inconclusive [inhibitor, partial curve, poor fit]
CC(=O)Oc1cccc(Nc2ncnc3ccccc23)c1 | inactive
CC(=O)Nc1ccc(-c2ccnc3c2CC(C(=O)NC(C)C)O3)cc1 (stereo not given) | inactive
CCc1nc(N2CCC3(CC2)OCCO3)c2nnn(Cc3ccccc3Cl)c2n1 | inconclusive [inhibitor, partial curve, poor fit]
CCCCC1=NN(C(=O)c2ccncc2)C(O)(C(F)(F)F)C1 (stereo not given) | inconclusive [inhibitor, full curve, poor fit]
Cc1nn(-c2ccccc2)c(Oc2ccccc2)c1C=O | inconclusive [inhibitor, single point]
Cc1cc(C)c2nc(NC(=O)c3ccco3)sc2c1 | inconclusive [inhibitor, single point]
CC(C)(C)OC(=O)[C@H](Cc1ccccc1)NC(=O)c1[nH]cnc1C(=O)Nc1ccc(Cl)cc1 | inconclusive [inhibitor, partial curve, poor fit]
COc1cc(/C=C2/SC(=S)N(Cc3ccccc3)C2=O)ccc1O | inconclusive [inhibitor, partial curve, poor fit]
COCC(=O)N1C[C@H]2CON(C)[C@H]2C[C@H]1c1cccc(-c2ccccc2OC)c1 | inactive
C=CC[C@H](CC(=O)N[C@H](CO)Cc1ccccc1)C(=O)N[C@H](COC(=O)[C@@H](CC=C)CC(=O)OC(C)(C)C)Cc1c[nH]c2ccccc12 | inconclusive [inhibitor, single point]
COc1ccc(OC)c(CNC(=O)c2cc3c(=O)oc4ccc(C)cc4c3s2)c1 | inactive
COc1ccc(C(c2nnnn2Cc2cccs2)N2CCN(c3ccccc3F)CC2)cc1OC (stereo not given) | inconclusive [inhibitor, partial curve]
CCc1ccc(NC(=O)COC(=O)/C=C/c2ccco2)cc1 | inactive
O=C(Nc1ccc(F)cc1)c1ccc2nsnc2c1 | inconclusive [inhibitor, partial curve]
Cc1ccc(Cc2c(-c3ccccc3)nc3c4ccccc4ccn23)cc1 | inconclusive [inhibitor, partial curve, poor fit]
O=C(c1ccc2c(c1)N(Cc1ccccc1F)C(=O)c1ccccc1S2=O)N1CCC(Cc2ccccc2)CC1 (stereo not given) | inconclusive [inhibitor, single point]
Brc1ccc(CN2CCc3nc(Nc4ccccc4)ncc3C2)s1 | inconclusive [inhibitor, partial curve, poor fit]
CC1=C(C(=O)Nc2ccccc2F)C(c2ccsc2)C2=C(CC(c3ccccc3)CC2=O)N1 (stereo not given) | inconclusive [inhibitor, single point]
CN(c1ccc(C(=O)NCc2ccccn2)cc1)S(=O)(=O)c1ccc(Cl)cc1 | inconclusive [inhibitor, partial curve, poor fit]
Cc1ccc(S(=O)(=O)Nc2ccc(C(=O)N3CCCC3)cc2)cc1 | inactive

SMILES | Potency
OC(c1ccccc1)(c1nc(-c2ccc3c(c2)OCO3)cs1)C(F)(F)F (stereo not given) | inconclusive [inhibitor, single point]
COc1cc(C(=O)N/N=C(\c2ccccc2)c2ccccn2)cc(OC)c1OC | inconclusive [inhibitor, full curve, poor fit]
O=c1c(Cl)c(O)ccn1C1OC(CO)C(O)C1O (stereo not given) | inconclusive [inhibitor, full curve, poor fit]
CCC(C)NC(=O)c1cnn2c1NC(c1cccs1)CC2C(F)(F)F (stereo not given) | inconclusive [inhibitor, single point]
CCOC(=O)COc1ccccc1/C=C\[N+](=O)[O-] | inactive
Cc1ccc(S(=O)(=O)c2nc(-c3ccccc3)oc2N2CCCC2)cc1 | inactive
COc1ccc(Cl)cc1NS(=O)(=O)c1cccc(C(=O)NCC2(N(C)C)CCCCC2)c1 | inconclusive [inhibitor, single point]
COc1ccc(CNc2ncnc3ccccc23)cc1 | inconclusive [inhibitor, partial curve, poor fit]
O=C(CN1CCN(c2nc(-c3ccc(F)cc3)cs2)CC1)NCc1ccc2c(c1)OCO2 | inconclusive [inhibitor, single point]
CC(C)N1C(=O)CC(Nc2ccc(N3CCOCC3)cc2)C1=O (stereo not given) | inactive
Cc1ccc2cc(C)c(SCC(=O)NCC3CCCO3)nc2c1 (stereo not given) | inconclusive [inhibitor, partial curve, poor fit]
COC(=O)[C@H](Cc1ccccc1)NC(=O)[C@@]1(C)C[C@@H]1[C@@H](NC(=O)OCc1ccccc1)c1ccccc1 | inconclusive [inhibitor, single point]
CCOC(=O)c1cccnc1SCc1cc(=O)n2ccccc2n1 | inactive
Cc1ccc2c(CC(=O)Nc3nnc(C(C)C)s3)coc2c1C | inactive
COc1cc(C)ccc1OCc1cc(C(=O)N2CCN(C3CCCCC3)CC2)no1 | inconclusive [inhibitor, single point]
COc1ccccc1C(=O)Nc1ccc(Br)cc1C | inconclusive [inhibitor, single point]
CCOC(=O)c1cc(-c2ccc(F)cc2)n(CCC(=O)Nc2nc3cc(C)c(C)cc3s2)c1C | inactive
COc1ccc(OCc2ccc(-c3nc(C#N)c(NCc4ccc(F)cc4)o3)o2)cc1 | inconclusive [inhibitor, single point]
Cc1ccnc(OC(C(=O)O)C(OCCc2ccccc2)(c2ccccc2)c2ccccc2)n1 (stereo not given) | inconclusive [inhibitor, partial curve, poor fit]
CCOC(=O)C1=C(C)N=C2c3ccccc3C(=O)C2C1c1ccc(C)cc1 (stereo not given) | inconclusive [inhibitor, single point]
Cc1ccc(N2CC(NS(=O)(=O)c3cccs3)CC2=O)cc1C (stereo not given) | inconclusive [inhibitor, single point]
C(=N\N(Cc1ccccc1)c1ccccc1)/c1ccco1 | inconclusive [inhibitor, partial curve, poor fit]

SMILES | Potency
COc1ccc(-n2nnnc2SCC(=O)Nc2ccccc2)cc1 | inconclusive [inhibitor, partial curve, poor fit]
COc1ccc(-c2oc3ncn4nc(-c5ccccc5OC)nc4c3c2-c2ccc(OC)cc2)cc1 | inactive
CCCCCOc1ccc(C(O)C(CN2CCOCC2)c2ccccc2)cc1 (stereo not given) | inconclusive [inhibitor, partial curve, poor fit]
COc1cc(/C=C(\C#N)C(=O)NCC2CCCO2)ccc1OC(=O)c1ccco1 (stereo not given) | inactive
COc1cc(C(=O)N(C)CCOc2ccccc2)ccc1OCC(=O)Nc1cccc(C(F)(F)F)c1 | inconclusive [inhibitor, single point]
Cc1cc2c(cc1C)C(=O)C(Br)=C(N)C2=O | inactive
CN(C)c1ccc(/C=C2\CCCc3c2nc2ccccc2c3C(=O)O)cc1 | inactive
COc1ccccc1CNC(=O)[C@H](C)NC(=O)C1CCN(C(=O)[C@@H](N)C(C)C)CC1 | inactive
O=C(NC(=S)Nc1ccccc1N1CCCCC1)c1ccco1 | inconclusive [inhibitor, partial curve, poor fit]
O=C(NC1CCN(C(=O)C2CCCCC2)CC1)c1ccccc1 | inconclusive [inhibitor, full curve, poor fit]
O=C(CC(c1ccccc1)c1cc(Br)ccc1O)NCCN1CCOCC1 (stereo not given) | inconclusive [inhibitor, partial curve, poor fit]
CCCCNC(=S)Nc1ccc([N+](=O)[O-])cc1 | inconclusive [inhibitor, single point]
O=C(NCC[C@@H]1C[C@@H]2C=C[C@H]1C2)c1cc(COc2ccc(F)cc2F)on1 | inconclusive [inhibitor, partial curve, poor fit]
O=C(Nc1ccc2ccccc2n1)c1ccccc1Cl | inconclusive [inhibitor, single point]
O=Nc1c(O)n(Cc2ccc(Cl)cc2Cl)c2ccccc12 | inconclusive [inhibitor, partial curve, poor fit]
Cc1c(C(=O)N2CCC(C(=O)Nc3ccc(F)c(Cl)c3)CC2)sc2nc[nH]c(=O)c12 | inactive
O=C1/C(=C/N(C(=O)c2ccco2)c2ccc(Br)cc2)Sc2ccccc21 | inconclusive [inhibitor, single point]
COc1ccc(CCNc2ccc(S(=O)(=O)N3CCN(C)CC3)cc2[N+](=O)[O-])cc1 | inconclusive [inhibitor, partial curve, poor fit]
Cc1cccc(C(=O)NC(=S)NNC(=O)c2cccs2)c1 | inactive
CN1CCC(N(C)C(=O)c2ccc(Cl)c(S(=O)(=O)N3CCCCC3)c2)CC1 | inconclusive [inhibitor, partial curve, poor fit]
CCc1cccc(OCCCCNCCCOC)c1 | inconclusive [inhibitor, partial curve, poor fit]
